B1: chr4:175223256:175223257:+_ENSG00000164118_ENST00000503780|hu_hu|motif|central (ssRNA)
RNA: GGGAGUUCUACAGUCCGACGAUCAAAUUGAUCACGAAGAAGCUUAUAGACAGCAUCUAUAAAGCGCAAGUCAUUUUUUGCGGUGAGCUCUACAUUGGAUUCCAUUAUAAGUUCUGUUACAUAAGGUGAGUAUGAGGUAAAAGACAACAGAGGAUUGAGCAUCA
B2: chrX:98862621:98862622:+_ENSMUSG00000034160_ENSMUST00000044475|mus_hu|mus_mus_mus_hu_False|38_58 (ssRNA)
RNA: GGGAGUUCUACAGUCCGACGAUCCUGCAUCUCCUUUAGAGUGUUUCCCAUAUUAGAGUAGGCAUCAGCAAAGGUAGGACUAAUUCGAAUAGCCUCCUUAUAGUGCAUCAGAGCUUCCUGCAGUUUUCCCUGCUGCUGCAGUACCAACAGAGGAUUGAGCAUCA
B3: chr1:89687925:89687926:+_ENSMUSG00000026289_ENSMUST00000027512|mus_mus|FALSE|FALSE (ssRNA)
RNA: GGGAGUUCUACAGUCCGACGAUCUUUUCUGGGAGGACACAUCAUUCUCCAAGAUGGGCCGUGGGGUCCCACGGUGCUCCUAAGGGUGCAGCAUCAAGGCUGUGCCCACAGCACAGCUCUGCUUCCUUUGUCCACACUGACAACCAACAGAGGAUUGAGCAUCA
B4: chrX:50352303:50352304:+_ENSMUSG00000025630_ENSMUST00000026723|mus_hu|motif|central (ssRNA)
RNA: GGGAGUUCUACAGUCCGACGAUCCAGCAUAAUGAUUAGGUAUGCAAAAUAAAUCAAGGUCAUAACCUGGUUCAUCAUCACGGAUCACGACGCCAGGGCUGCGGGUCGCCAUAACGGAGCCGGCCGGCGCGCGGGCUGACUGCUCAACAGAGGAUUGAGCAUCA
B5: chr2:4544944:4544945:-_ENSMUSG00000039449_ENSMUST00000035721|mus_mus|FALSE|FALSE (ssRNA)
RNA: GGGAGUUCUACAGUCCGACGAUCCCUUGAUAUGCUGGUGUUCUGAACUUAGGCUGGUAUAACAGCCAUCUUUCGACCUUCUAUCUCCUAUCAAUUCAUCUGUCCAGAAAGAUGACAACCAUACUCUGCUUAGAAAGAAAAGCACAACAGAGGAUUGAGCAUCA
B6: chr4:144465060:144465061:+_ENSG00000153147_ENST00000283131|hu_mus|FALSE|FALSE (ssRNA)
RNA: GGGAGUUCUACAGUCCGACGAUCAUAGUCUUCUCCUUCAAAGUUAUAAACACUGGACUCUGUGUCCAUCGUAAAGUUUCUAAGUGAACUUUCACCCAUCUUGGAGAGCUUUUCGUUCAUUUCUGCAGUCUUCUUUGCACCUCUCAACAGAGGAUUGAGCAUCA
B7: chr18:54424204:54424205:+_ENSG00000091157_ENST00000357574|hu_hu|FALSE|FALSE (ssRNA)
RNA: GGGAGUUCUACAGUCCGACGAUCCCAGGCGUGAAGGCAGGACAUAAACAGCUUUGCAGUGUCCAUAGUUAAAUUAUAUUCUAAUAGGGUCAAUGGCUUUGAUUUGCUGGACCGAUAUUCAGGAUCACUUUCUUCCCUUCUCUGCAACAGAGGAUUGAGCAUCA
B8: chr4:76572280:76572281:-_ENSG00000138757_ENST00000395719|hu_mus|FALSE|FALSE (ssRNA)
RNA: GGGAGUUCUACAGUCCGACGAUCUUUCAGUUCAUUUUCAUCAAUAUCAUGAGGCAAGUUACCAACGAAAAGCUGAUGACUGUCCGGAUAGCGAAUUAUUCUCCGGUUGUCAGAGUCAUUCUGUUCCAUAUCUCCUCUGCCUGGCAACAGAGGAUUGAGCAUCA
B9: chr20:57486015:57486016:+_ENSG00000087460_ENST00000306090|hu_mus|motif|central (ssRNA)
RNA: GGGAGUUCUACAGUCCGACGAUCCCUUUUUUUUCUUUUUCUUCUGUAGGCCGCCUUAAGCUUACUAAAUUUGGAACAUCGGAGCAAGCUGAAGGGAAGAGGGGUUUUUCAGAAUCACUGGGGGAAAAAGGAAAGGUUGCGGUGCAACAGAGGAUUGAGCAUCA
B10: 23959401_23959521_7647_CDS_ENSMUSG00000039218_ENSMUST00000088621|mouse|control|control (ssRNA)
RNA: GGGAGUUCUACAGUCCGACGAUCGGAAGAGGAAGAAGAGGAAGAGGAGGAGGAGGAGGAGCUGGAACUGGAGCUGCUAGAGCGCCUCUUCCUUUUGGCCGGGGUUGGUUCCUGAGGACGUCCCUCUCUAAUAGCCUCCUUUGGCAACAGAGGAUUGAGCAUCA
B11: chr5:128448638:128448639:+_ENSG00000066583_ENST00000173527|hu_mus|hu_hu_hu_mus_False|28_48 (ssRNA)
RNA: GGGAGUUCUACAGUCCGACGAUCGGCACUCGCCUUAAUUAGGUUCUGAAUUUCCUUGAACUUCGGGUGGUCUUUGUCAGCCACCAGCUGAAGCAGAACAGCCUCACUCGUGGUCACGAUGAUCCCAGUGCGGGCAAGACGCUCCAACAGAGGAUUGAGCAUCA
B12: chr11:77336104:77336105:-_ENSG00000074201_ENST00000525064|hu_mus|hu_hu_hu_mus_False|1_28 (ssRNA)
RNA: GGGAGUUCUACAGUCCGACGAUCCUCACACAUUGCUGUGAACAUCGCCUCCAAUGCUGACUUAUCACUGGGCACAAAUCGAAAUUCAGAAAUGGGUUCAACAUCAUCAUCACUGUCCUCAUCUUCAUCAGAGAGAGCAGGUUCCAACAGAGGAUUGAGCAUCA
B13: chr20:47733735:47733736:-_ENSG00000124214_ENST00000360426|hu_hu|FALSE|FALSE (ssRNA)
RNA: GGGAGUUCUACAGUCCGACGAUCCACAUCCUUGCCGAUACCAUGGCUGAUCAGAGGUGGCUGAGAGGAGCAAUUGAUAAGAGAUACAAAUUCGUUCUUGUUGUUUUUGGGGAAGUCUUUGUAUUCAACCUGGAAUCCCUGGACCAACAGAGGAUUGAGCAUCA
B14: chr2:103616161:103616162:-_ENSMUSG00000027184_ENSMUST00000111147|mus_mus|motif|central (ssRNA)
RNA: GGGAGUUCUACAGUCCGACGAUCCUCAUCCACUUGCUCCUUCUCACCACUGCUGAACUGUGUUUCUGCCAUGAACUGCCGGUUGACAUACUCUGUUGAUUCAACCUCACUUUGCUCUGUGUAUUCUUCCGCUGGCUCAGGUUCCAACAGAGGAUUGAGCAUCA
B15: chr8:112747817:112747818:+_ENSMUSG00000046441_ENSMUST00000056972|mus_mus|motif|central (ssRNA)
RNA: GGGAGUUCUACAGUCCGACGAUCAAUGACCUUUGGUUUUGGCUUAAAGCUGUUCUUUCUUAUUAGUUGAAGUAGUUAUAGCGGGCAAAAGUCAUACAAAAAAAAAAUCUGUAUUUCAUUUCAAUUCAAAGAAAAUGAAGCCACCAACAGAGGAUUGAGCAUCA
B16: chr13:115007635:115007636:+_ENSG00000130177_ENST00000356221|hu_mus|FALSE|FALSE (ssRNA)
RNA: GGGAGUUCUACAGUCCGACGAUCCAGUUUCAGAGCCUCUUUGUAACUGUAGGUAGCCAGGGUGCGAUUAUCUAAAGCAUCAUAGAUCUUCCCUCUCAGGAGACAAAUCGAGCUCUUUAUGGAAGACUGUGACAUCUCCCAGUCCAACAGAGGAUUGAGCAUCA
B17: chrX:20248820:20248821:+_ENSMUSG00000001924_ENSMUST00000001989|mus_mus|mus_mus_mus_hu_True|68_78 (ssRNA)
RNA: GGGAGUUCUACAGUCCGACGAUCGGCGAAGUCCGUCACCACAAAGUCAGGUUCUGCCAGUGAUGCUGGCAAGGAUUUAAAGCUAAUCUUCUUAGGUACUUUGACCUGACUGACGAUGCCUCCACGGAUGUAGUCGGAGAAGUUCAACAGAGGAUUGAGCAUCA
B18: chr7:54823571:54823572:-_ENSG00000132432_ENST00000352861|hu_mus|hu_hu_hu_mus_False|88_88 (ssRNA)
RNA: GGGAGUUCUACAGUCCGACGAUCUCCCAUGAUAGCAAAUCCUAUAGCUGUUGCCAUGGCAAUCUUCUGGAAUUCUUUUCUGUCGGGUUUGGUGCAUCUUUUAACCAGCCGAAUUGAGUCCUUUACAAACUGCCGGCUGGGCUCCAACAGAGGAUUGAGCAUCA
B19: chr8:17827181:17827182:+_ENSG00000078674_ENST00000519253|hu_hu|FALSE|FALSE (ssRNA)
RNA: GGGAGUUCUACAGUCCGACGAUCGCUUUCAAAAGGUUUUGGAAAAGCCAUAUAUUCUGUUUUUCCUGAAGAAUUCUGGGCUAAGGGUUGCUGCUGUUCACUGGGUGUAGAGAUAUUCUGAGAAAAAUCUCCAAAAUUAGAAGGCAACAGAGGAUUGAGCAUCA
B20: chr7:91631701:91631702:+_ENSG00000127914_ENST00000356239|hu_hu|FALSE|FALSE (ssRNA)
RNA: GGGAGUUCUACAGUCCGACGAUCUUCAUUUAGCUGAAUACAUUGUUGUUUGAGGUCCUCAUUUUCCUCUAUAAGUAUUUCUAUUUCUUUUUCCCACACAGAGUCUUUGGAUUUGGACUUAAUGGAGUCUAAGAAAAUCAAUCUCAACAGAGGAUUGAGCAUCA
B21: chr7:30640729:30640730:+_ENSG00000106105_ENST00000389266|hu_mus|FALSE|FALSE (ssRNA)
RNA: GGGAGUUCUACAGUCCGACGAUCCUGGAUGAUAUUGUUCUUCAAAGCACAUCCUACCGGCCCGAAGUCAUACAAUCCACUGACACCUCCAUAAAUAGCAAAAGCCUGAUCGUAGAAAAACCUCCUCUUCAACGUAUCUUCCAUCAACAGAGGAUUGAGCAUCA
B22: chr15:96202663:96202664:+_ENSMUSG00000033237_ENSMUST00000096250|mus_mus|FALSE|FALSE (ssRNA)
RNA: GGGAGUUCUACAGUCCGACGAUCACUGCUUGUGGACGGUGACCCACCCAGAGUUAACACAGGUCCAUUAGAAACUCUUUCUAGUUGGUCACCUUUGGCAGUAUCUUGCUGAGUGGCACCCGAAGUCCCUUGUGGUUCUACUGGCAACAGAGGAUUGAGCAUCA

This is one part of the list.

This experiment deals with T1, UNK ZnF1-3 (human, UniProt Q9C0B0 31-174).
T1 sequence: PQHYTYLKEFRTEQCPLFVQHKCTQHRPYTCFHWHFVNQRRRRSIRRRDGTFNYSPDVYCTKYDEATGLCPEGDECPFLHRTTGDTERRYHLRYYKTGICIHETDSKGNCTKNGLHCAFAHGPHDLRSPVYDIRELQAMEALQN
The experiment can be described thus: nsRBNS (natural sequence RNA bind-n-seq); RBNS binding buffer (assumed for nsRBNS): 25 mM Tris pH 7.5, 150 mM KCl, 3 mM MgCl2, 0.01% Triton X-100, 500 ug/ml BSA, 20 U/ml SUPERase-In, 4 C; UNK is unkempt and MSI1 is Musashi-1; names of the RNAs are library labels; protein concentration not given here; high values mean tight binding.
In turn, B1 displayed a binding signal of 1.28 enrichment R.

B2 gave a binding signal of 1.02 enrichment R.

In turn, B3 gave a binding signal of 1.07 enrichment R.

As to B4, the binding signal is 0.935 enrichment R.

As for B5, the binding signal stood at 1.01 enrichment R.

B6 had a binding signal of 0.378 enrichment R.

B7 showed a binding signal of 1.24 enrichment R.

B8 displayed a binding signal of 0.814 enrichment R.

B9 displayed a binding signal of 1.66 enrichment R.

B10 displayed a binding signal of 1.36 enrichment R.

The molecule B11 showed a binding signal of 0.627 enrichment R.

B12 came in with a binding signal of 0.877 enrichment R.

As for B13, the binding signal came to 1.71 enrichment R.

Molecule B14 gave a binding signal of 0.54 enrichment R.

For B15, the binding signal was determined as 0.837 enrichment R.

Molecule B16 displayed a binding signal of 0.821 enrichment R.

B17 returned a binding signal of 0.581 enrichment R.

B18 returned a binding signal of 0.63 enrichment R.

B19 gave a binding signal of 1.64 enrichment R.

B20: the binding signal was determined as 0.449 enrichment R.

In the case of B21, the binding signal turned out to be 1.35 enrichment R.

For B22, the binding signal is 0.454 enrichment R.

(Values after PMC12136788.)
